The source of these data is ChEMBL document CHEMBL4888484, “Replenishing the malaria drug discovery pipeline: Screening and hit evaluation of the MMV Hit Generation Library 1 (HGL1) against asexual blood stage Plasmodium falciparum ,using a nano luciferase reporter read-out” (2022).

SMILES strings stand for the structures. In all, about 150,000 compounds went through this assay and about 540 (0.36%) showed an effect of 50% or more. This is one part of the list.

In this experiment the test system is Plasmodium falciparum. The experiment in a line: Primary screen in NF54 nanoGlo assay, in single point, at 2uM, 72h; a lower Z score goes with more inhibition. Particulars: timepoint 72 hour. In kind it is functional, Erythrocyte.
For orientation: % Inhibition means the drop in the measured response relative to a control, in per cent. With `Cc1cc(C)n(CC2(c3nc4c([nH]3)CCCNC4=O)CC2)n1`, the “% Inhibition” value is 8% and the Z score is reported as -1.06.
For the molecule `Cc1csc(CNC(=O)C2(C)CC2F)n1` (stereo unspecified), the “% Inhibition” value was -8% and the Z score is given as 1.2.
Consider `O=C(N1CCC(Oc2ncccc2Br)CC1)C1(c2ccccc2)CCOCC1`, for which the “% Inhibition” value is -9% and the Z score was found to be 1.65.
As to `CN1CCN(S(=O)(=O)N2CC[C@H](C3CCCCC3)C2)CC1`, the “% Inhibition” value is on record as -22% and the Z score was 2.32.
For `CCOC(=O)c1nnsc1NC(=O)Nc1ccccc1OC` the same measures were 7% and -0.85.
For the molecule `COC(=O)c1cc(NS(C)(=O)=O)ccc1O`, the “% Inhibition” value was -3% and the Z score came to 0.39.
Regarding `O=C(NC1CCCC1)[C@@H](c1ccc(Cl)cc1)N(Cc1ccccc1)c1ccccc1`, the “% Inhibition” value was -5% and the Z score is 0.73.
Turning to `O=C(Cc1cccc(OC(F)(F)F)c1)NCc1cc2n(n1)CCCO2`, the “% Inhibition” value was -15% and the Z score is 2.38.
Take `NC[C@@](O)(c1cccc(C(F)(F)F)c1)C(F)(F)F`: the “% Inhibition” value is -1% and the Z score worked out at 0.18.
Regarding `O=C(NCc1cccnc1N1CCC[C@H](O)C1)c1ccccn1`, the “% Inhibition” value is listed as -13% and the Z score is listed as 1.56.
Regarding `COCc1nc2n(n1)CCCC2NC1CCCN(C(C)C)C1=O` (stereo unspecified), the “% Inhibition” value is on record as -4% and the Z score is given as 0.58.
As for `Cc1ccc(CN2CCN(C/C=C/c3ccco3)C[C@@H]2CCO)o1`, the “% Inhibition” value is listed as 6% and the Z score was -0.83.
As to `Cc1nocc1NC(=O)N[C@@H]1CN(C(=O)OC(C)(C)C)C[C@@H]1O`, the “% Inhibition” value is reported as -15% and the Z score was 1.61.
Regarding `O=C(NCc1ccc2c(c1)CCCC2)NCc1nnn[nH]1`, the “% Inhibition” value amounted to 12% and the Z score was -1.57.
In the same order, the values of `C[C@@H](c1ccc(-c2nc(C3CC3)n[nH]2)cc1)N1CCCCC1` are -4% and 0.57.
With `Cc1ccc(-c2noc3c(N(c4ccc(C)c(Cl)c4)c4nc(C)nc5c(-c6ccc(C)cc6)noc45)nc(C)nc23)cc1`, the “% Inhibition” value is given as -12% and the Z score turned out to be 1.88.
Consider `Cc1cc(NC(=O)N[C@H]2CCCn3ncnc32)n(C)n1`, for which the “% Inhibition” value is reported as -8% and the Z score amounted to 1.02.
In the same order, the values of `Cc1ccnc([C@@H](NC(=O)Nc2ccc3c(c2)nnn3C)C2CC2)c1` are -4% and 0.89.
`CN1C(=O)C[C@H](NC(=O)N(C)C2CCCC2)C1=O`: the “% Inhibition” value is listed as -2% and the Z score was 0.27.
On to `CN(C)C[C@H]1CN(CCOCC(F)(F)F)CCO1`, for which the “% Inhibition” value is listed as -12% and the Z score stood at 1.39.
As to `CN1CCN2C[C@@H](NC(=O)c3ccc(CCC(C)(C)O)cc3)C[C@H]2C1`, the “% Inhibition” value is recorded as -1% and the Z score was determined as 0.23.
For `N#Cc1ccc(CN2CCC(N3CCN(c4cc(C(F)(F)F)ccn4)CC3)CC2)s1`, the “% Inhibition” value is listed as 1% and the Z score is listed as -0.09.
As for `Cc1ccc2cc(-c3noc(CCC(=O)Nc4ccccc4C(C)C)n3)c(O)nc2c1`, the “% Inhibition” value is recorded as -2% and the Z score was 0.36.
On to `CNc1nc2c(s1)[C@@H](c1cccc(OC)c1OCc1ccc(F)cc1)CC(O)=N2`, for which the “% Inhibition” value is on record as 6% and the Z score is -0.8.
For `CC(C)(C)c1ncc(CNc2ccc3oc(C(N)=O)nc3c2)cn1` the same measures were 12% and -1.36.
Take `COc1ccc(NC(=O)c2cc(=O)[nH]c3ccccc23)cc1S(=O)(=O)N1CCCCC1`: the “% Inhibition” value is given as -8% and the Z score turned out to be 1.26.
Turning to `Cc1ccccc1-n1ncc2c1CC(C)(C)C[C@@H]2NC(=O)c1nonc1C`, the “% Inhibition” value is given as 5% and the Z score was -0.62.
Turning to `CON(C)C(=O)Cc1c(C)nn(C)c1C`, the “% Inhibition” value is on record as -2% and the Z score is reported as 0.25.
In the same order, the values of `CC(C)N1CCC(CNC(=O)C2CCCCC2)CC1` are -12% and 1.81.
In the case of `CCN1CCN(C2=NCCN2S(=O)(=O)c2cc(C)c(C)cc2C)CC1`, the “% Inhibition” value is given as -18% and the Z score came out at 2.07.
As for `CCc1nc2c(c(N(C)Cc3cc(C4CC4)[nH]n3)n1)CCNCC2`, the “% Inhibition” value is on record as -9% and the Z score stood at 1.62.
Take `CCOC(=O)CN1CCCN(c2nc3ccccc3n2C)CC1`: the “% Inhibition” value came out at 3% and the Z score was -0.36.
Consider `Cc1c(Br)c(C(=O)N[C@@H](C)Cc2ccco2)nn1C`, for which the “% Inhibition” value is recorded as -3% and the Z score amounted to 0.62.
Consider `CC(C)c1csc(CCNC(=O)Nc2cc(-c3cccnc3)nn2C)n1`, for which the “% Inhibition” value is -2% and the Z score was determined as 0.26.
Take `O=C(Cn1c(=O)cnc2ccccc21)N1CC[C@H](c2ccccc2)[C@H](CO)C1`: the “% Inhibition” value is listed as -8% and the Z score amounted to 1.33.
As to `CC(C)CNC(=O)c1coc(CN2CCN(Cc3ccccc3F)CC2)n1`, the “% Inhibition” value is listed as -1% and the Z score is given as 0.12.
For the molecule `CC(=O)N1CCC[C@H]1c1nc(CCOc2ccc(F)cc2)no1`, the “% Inhibition” value is given as -4% and the Z score turned out to be 0.52.
For `Cc1cc2c(cc1C)N(CC(=O)Nc1cccc(F)c1)C(=O)[C@H]1CCCC1=N2`, the “% Inhibition” value was 0% and the Z score was determined as 0.05.
For `O=C(c1ccc(F)cc1)N1CC(Oc2ccccc2-c2nc(-c3cnccn3)no2)C1`, the “% Inhibition” value is -17% and the Z score stood at 3.04.
For the molecule `N#CC1(C(=O)N2CC(O)C2)CCCCC1`, the “% Inhibition” value came out at 0% and the Z score is given as -0.04.
As to `CC(=O)N1CCc2c(NC(=O)[C@@]3(C)CCNC(=O)C3)cccc21`, the “% Inhibition” value is reported as -9% and the Z score came out at 1.1.
As for `C[C@H]1CCN(C(=O)C2(C)COC2)CC12CCC2`, the “% Inhibition” value is on record as -10% and the Z score is 1.93.
`CN(c1ccccc1)S(=O)(=O)NC(=O)c1coc(C2CCCC2)n1`: the “% Inhibition” value is -4% and the Z score was determined as 0.35.
For `c1ccc(-c2csc(N3CCC(c4ccccc4)CC3)n2)cc1`, the “% Inhibition” value is recorded as -17% and the Z score is 1.86.
For `Cc1cnc(NCCn2cnc(C)c2C)nc1N(C)C` the same measures were -1% and 0.15.
Take `CN1CC[C@H](NC(=O)N(Cc2ccncc2)C2CCCCC2)C1=O`: the “% Inhibition” value is listed as -17% and the Z score is given as 1.62.
Turning to `C#CCN(Cc1c[nH]nc1-c1cccnc1)CC1CC1`, the “% Inhibition” value is -9% and the Z score is 0.91.
With `Cc1cc(C)n(Cc2ccc(C(=O)NCc3ccc(C)o3)o2)n1`, the “% Inhibition” value is recorded as -15% and the Z score came out at 2.12.
In the same order, the values of `Cc1nnc(N2CCN(CC(=O)N3CCCC3)CC2)c(C#N)c1C` are -1% and 0.16.
On to `O=C(c1cc(NCC[C@@H]2C[C@@H]3C=C[C@H]2C3)ccn1)N1CCOCC1`, for which the “% Inhibition” value is reported as -5% and the Z score was 0.62.
`Cc1ccc(C)n1CC(=O)N1CCC(c2nc3ccccc3o2)CC1`: the “% Inhibition” value was -18% and the Z score was determined as 2.27.
For `Cc1ccccc1C(=O)N[C@@H]1CCCC[C@H]1NC(=O)C1CCN(S(=O)(=O)C[C@]23CCC(CC2=O)C3(C)C)CC1` the same measures were 0% and -0.02.
For the molecule `CC1CC1C(=O)NS(=O)(=O)c1ccc2c(c1)OCCCO2` (stereo unspecified), the “% Inhibition” value is -1% and the Z score amounted to 0.2.
For the molecule `CCCCN(Cc1c[nH]cn1)C1CCCCCC1`, the “% Inhibition” value is on record as 12% and the Z score is listed as -1.63.
In the same order, the values of `O=C(Nc1ccccc1)N[C@H](c1ccccc1)C1(CO)CCOCC1` are 12% and -1.39.
As to `CC(C)c1nc(CNC(=O)c2ccc(OC[C@@]3(C)CCCNC3)nc2)no1`, the “% Inhibition” value was 5% and the Z score is on record as -0.62.
In the same order, the values of `Cc1nsc(NC(=O)C2CC2c2ccc3c(c2)OCCO3)c1C#N` (stereo unspecified) are -21% and 2.52.
Consider `COc1ccc(/C=C(\C(=O)N2CCCCCC2)n2ccccc2=O)cc1`, for which the “% Inhibition” value was 28% and the Z score is -3.12.
In the same order, the values of `Cn1c(=O)n(CC(=O)N2CCC[C@H]2c2cccc(F)c2)c2ccccc21` are -12% and 1.57.
For the molecule `CCC(=O)N1CCCC(C(=O)NC(c2ccccc2)C(C)C(=O)OC)C1` (stereo unspecified), the “% Inhibition” value turned out to be 7% and the Z score is listed as -0.93.
On to `Clc1ccc2c(c1)CCCN2Cc1nc(C2CC2)no1`, for which the “% Inhibition” value is reported as -15% and the Z score came to 2.4.
With `O=C(Nc1ccccc1F)N1CCC(n2cnc3c(Cl)cccc3c2=O)CC1`, the “% Inhibition” value is reported as -7% and the Z score is on record as 0.75.
Take `Cc1cc(C(=O)N2CC(C)OC(C)C2)on1` (stereo unspecified): the “% Inhibition” value is given as 12% and the Z score is reported as -2.2.
As for `COc1ccc(OC)c(CNC(=O)c2cc3n(n2)CCCN(Cc2ccc(Cl)cc2)C3=O)c1`, the “% Inhibition” value is listed as -12% and the Z score was determined as 2.28.
For `C[C@H](Oc1cccc(Cl)c1)c1nnc(NCc2cc3n(n2)CCCC3)o1` the same measures were -6% and 1.19.
Consider `Cc1cc(Cl)ccc1-n1nc(CC(C)C)nc1[C@H]1CCCN(C(N)=O)C1`, for which the “% Inhibition” value is -7% and the Z score was determined as 1.36.
Take `COc1ccccc1OCC(=O)Nc1ccc2c(c1)NC(=O)[C@H](C)O2`: the “% Inhibition” value is listed as -2% and the Z score is reported as 0.42.
Regarding `COc1ccc(N2CCN(C(=O)c3cncnc3C3CC3)CC2)nc1`, the “% Inhibition” value is -3% and the Z score amounted to 0.47.
Turning to `COc1ccc(OC2CCN(C3CCCC3)CC2)c(C(=O)N(C)Cc2ccc(F)cc2)c1`, the “% Inhibition” value was -13% and the Z score came out at 1.66.
In the same order, the values of `O=C(NCC1(c2ccccc2)CC1)c1cccc(S(=O)(=O)N2CCOCC2)c1` are -15% and 1.97.
For `O=C(N[C@@H]1c2ccccc2C2(CCNCC2)[C@H]1O)c1ccc2ccccc2n1`, the “% Inhibition” value is given as -15% and the Z score amounted to 1.44.
For `O=C(c1cc2ccccc2[nH]1)N1CC2(CCC2(F)F)C1` the same measures were 3% and -0.47.
For `Cc1c(C(=O)NCc2ccc(F)cc2)cnn1-c1nccc(-c2ccco2)n1` the same measures were -4% and 0.47.
In the case of `Cn1cnc2c1CCN(Cc1ccc(Cl)s1)C2`, the “% Inhibition” value is listed as -6% and the Z score is 1.01.
Turning to `O=S(=O)(CCC1CC1)Nc1n[nH]c2nc(C(F)(F)F)ccc12`, the “% Inhibition” value is reported as 2% and the Z score is given as -0.25.
For `O=C(c1cnn2c1CCCC2)N1[C@@H]2CC[C@H]1C[C@@H](O)C2` the same measures were -23% and 2.16.
For `Cc1noc(C)c1CN1CC[C@H](CO)[C@H](NC(=O)c2ccccc2)C1` the same measures were -6% and 0.8.
For the molecule `O=C1N[C@H]2C[C@@H](C(=O)NC[C@H]3O[C@H](CCOc4ccccc41)CC[C@@H]3O)N(CC1CCCCC1)C2`, the “% Inhibition” value is -13% and the Z score was 1.89.
`Cc1nc(-c2ccccc2)c(C(=O)n2ccnc2)s1`: the “% Inhibition” value is given as -9% and the Z score came to 1.14.
As for `CCN(CC(=O)N1CCCN(c2ccc(-c3ccccc3)nn2)CC1)C(=O)c1ccccc1F`, the “% Inhibition” value was -5% and the Z score was found to be 0.7.
In the case of `Cc1ccc(-c2csc(-c3cccn3CC(=O)NC[C@H]3CCCO3)n2)cc1`, the “% Inhibition” value is -18% and the Z score turned out to be 3.33.
Turning to `O=C(c1cc(C2CC2)[nH]c(=O)c1)N1CC2C3CCC(O3)C2C1` (stereo unspecified), the “% Inhibition” value is 3% and the Z score is -0.5.
For `COc1ccccc1-c1cc(C(=O)Nc2ccc(F)cc2)nc2c(-c3ccccc3)c(C)nn12`, the “% Inhibition” value is 5% and the Z score is listed as -0.52.
